Out of some 48,000 compounds screened, about 550 (1.1%) were called active. Not shown: some 4% with an inconclusive outcome. Rule as the data show it: active = potency below about 15 µM; inconclusive = mostly about 16 µM to 33 µM; inactive = weaker than that. This is one part of the list.
Target: Lysosomal acid glucosylceramidase (Homo sapiens) (UniProt P04062)
Assay: Glucocerebrosidase;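 also: the screen sought inhibitors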
Details: purified enzyme, resorufin glucoside fluorescence (screen aimed at inhibitors), 20 min
Procedure, shortened: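 Compounds titrated against 0.2 nM normal enzyme, 30 uM resorufin beta-D-glucopyranoside substrate, citrate/phosphate buffer with taurocholate and tween-20, pH 5.9. Reaction ran 20 min at room temperature; fluorescence (Ex 548/Em 600) gave AC50.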
Potency is read from the fitted curve at half-maximal effect.

Chain of UniProt P04062 (P04062 whole entry, looked up): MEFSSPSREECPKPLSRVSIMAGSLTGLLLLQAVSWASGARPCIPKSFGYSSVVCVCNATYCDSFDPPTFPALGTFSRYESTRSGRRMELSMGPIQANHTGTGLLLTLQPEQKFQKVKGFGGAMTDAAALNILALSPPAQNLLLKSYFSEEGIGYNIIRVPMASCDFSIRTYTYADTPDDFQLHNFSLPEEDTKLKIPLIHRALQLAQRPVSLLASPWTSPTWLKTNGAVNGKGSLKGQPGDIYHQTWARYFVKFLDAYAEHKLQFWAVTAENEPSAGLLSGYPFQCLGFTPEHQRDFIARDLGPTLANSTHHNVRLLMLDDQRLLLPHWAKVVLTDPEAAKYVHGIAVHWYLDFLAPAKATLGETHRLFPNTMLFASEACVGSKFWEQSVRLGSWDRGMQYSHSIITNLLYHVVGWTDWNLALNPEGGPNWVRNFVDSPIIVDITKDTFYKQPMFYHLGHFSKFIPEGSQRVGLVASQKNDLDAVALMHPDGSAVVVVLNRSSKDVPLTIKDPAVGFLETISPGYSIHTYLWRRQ

Potency, inactive:
c1ccc(-n2cnnc2SCc2cn3ccccc3n2)cc1 > 76.9 µM
CC(=O)c1cccc(NC(=O)N2CCCC2C(=O)Nc2cccc(C)c2C)c1 (centres undefined) > 76.9 µM
COc1ccc(OC)c(NS(=O)(=O)c2ccc(Cl)s2)c1 > 76.9 µM
CC(=Nc1ccc(O)cc1)c1sc2ccccc2c1O > 76.9 µM
COc1ccc(CN(CC2CCCO2)S(=O)(=O)c2ccc(C(=O)O)cc2)cc1OC (centres undefined) > 76.9 µM
COc1ccc(OC)c(NC(=O)CSc2nc(N)c(-c3ccccc3)c(=O)[nH]2)c1 > 76.9 µM
CCOC(=O)N1CCN(C(=O)c2ccc(N3C(=O)CCC3=O)cc2)CC1 > 76.9 µM
Brc1cccc(-c2nnc(SCc3nc4ccccc4[nH]3)o2)c1 > 76.9 µM
CCC(=O)Nc1sc(C(=O)OC)c(C)c1C(=O)OC > 76.9 µM
COc1ccc(/C(O)=C2/C(=O)C(=O)N(CC3CCCO3)C2c2cccc(OC)c2)cc1 (centres undefined) > 76.9 µM
N#Cc1ccc(OCC(=O)NCCc2ccc(S(N)(=O)=O)cc2)cc1 > 76.9 µM
O=S(=O)(NCCc1ccccc1F)c1cccc(S(=O)(=O)N2CCOCC2)c1
COc1ccc(OCC(O)Cn2c(=N)n(CCN3CCOCC3)c3ccccc32)cc1 (centres undefined)
COc1ccc(-n2c(CSc3nc(C)cc(C)n3)nnc2SCC(=O)Nc2nccs2)cc1 > 76.9 µM
COc1ccccc1NC(=O)CCNC(=O)Cn1ccc2ccccc2c1=O > 76.9 µM
Cc1ccc(/C(O)=C2/C(=O)C(=O)N(CCN3CCOCC3)C2c2ccccn2)cc1 (centres undefined) > 76.9 µM
O=C(NCc1cccs1)C1CCCN1C(=O)Nc1ccccc1 (centres undefined) > 76.9 µM
COc1cc(S(=O)(=O)n2c(C)nc3ccccc32)ccc1F > 76.9 µM
COc1nc(OC)nc(N2CCC(NC(=O)C(Cc3ccc(C(C)C)cc3)NC(C)=O)CC2)n1 (centres undefined) > 76.9 µM
O=C(NC1CCCCC1)c1cccnc1C(=O)O > 76.9 µM
NC(=O)C1CCN(C(=O)CN2CCCc3ccccc32)CC1 > 76.9 µM
Cc1cc(C)n(C(=O)CCNC(=O)c2ccccc2Br)n1 > 76.9 µM
COCCCn1c(SCC(=O)NC(C)(C)C)nnc1-c1ccccc1 > 76.9 µM
Cc1ccc(OCc2nnc(SCC(=O)NC3CCCCC3)n2C)cc1 > 76.9 µM
Cc1cc(OC(=O)N2CCOCC2)cc(C)c1Cl > 76.9 µM
Fc1ccc2nc(-c3ccccc3)nc(SCc3nnc(-c4ccccc4)o3)c2c1 > 76.9 µM
N#CCCNC(=O)CCN1CCOCC1 > 76.9 µM
Oc1c(CN2CCOCC2)cc(-c2ccccc2)cc1CN1CCOCC1 > 76.9 µM
COc1ccc(OC)c(NC(=O)c2cc3n(n2)C(C(F)(F)F)CC(c2ccc4c(c2)OCO4)N3)c1 (centres undefined) > 76.9 µM
Cc1ccc(S(=O)(=O)N2CCN(C(=O)COc3ccc(-c4nnco4)cc3)CC2)cc1 > 76.9 µM
Cc1nnc(N(Cc2ccco2)C(=O)c2cccc(C#N)c2)s1 > 76.9 µM
c1ccc(Cn2ccnc2SCc2nnc(-c3ccccc3)o2)cc1 > 76.9 µM
O=S(=O)(NC1CCCC1)c1cccc(S(=O)(=O)N2CCC(n3nnc4ccccc43)CC2)c1
Cc1ccc2nsnc2c1S(=O)(=O)N(Cc1cc2cccc(C)c2[nH]c1=O)CC1CCCO1 (centres undefined) > 76.9 µM
CCN(CC)CCNC(=O)CS(=O)Cc1nc(-c2ccc(C)cc2)oc1C (centres undefined) > 76.9 µM
CC(C)NC(=O)CSc1nncn1-c1ccccc1 > 76.9 µM
CCOC(=O)N1CCN(Cc2oc(CO)cc(=O)c2O)CC1 > 76.9 µM
CCOc1ccc(C2C=C(c3ccc(F)cc3)Nc3ncnn32)cc1 (centres undefined) > 76.9 µM
Cc1ccc(NC(=O)N(C2=NCC(C)S2)c2ccccc2)cc1 (centres undefined) > 76.9 µM
COc1ccccc1Cn1nnc2c(=O)[nH]c(C3CCN(C(=O)c4ccc(C)cc4)CC3)nc21 > 76.9 µM
CCOC(=O)Cn1c(=N)n(Cc2ccccc2F)c2ccccc21 > 76.9 µM
Cc1ccc(-c2cc(C(=O)Nc3cc(C)ccc3C)[nH]n2)c(O)c1 > 76.9 µM
CCOC(=O)c1ccc(NC(=O)CSc2nnc(Cc3cccs3)n2C)cc1 > 76.9 µM
N#Cc1nc(COc2ccc(F)cc2)oc1N1CCCC1 > 76.9 µM
Cc1ccc(-c2cn3cccnc3n2)cc1NC(=O)c1c(-c2ccccc2Cl)noc1C
CC1(C)CC(=O)c2sc(NS(=O)(=O)Cc3ccccc3)nc2C1 > 76.9 µM
N#Cc1nc(-c2cccs2)oc1N1CCN(Cc2ccccc2)CC1 > 76.9 µM
CCCCCOC(=O)C1=C(C)N(C)C(=O)NC1c1cc(Br)c(O)c(OC)c1 (centres undefined) > 76.9 µM
N#CCCN1CCN(C(=S)c2ccc(-c3ccc(Cl)c(Cl)c3)o2)CC1 > 76.9 µM
NC1=NCc2ccccc21 > 76.9 µM
CC(=O)Nc1ccc(OCC(O)CN2CCN(c3cccc(Cl)c3)CC2)cc1 (centres undefined) > 76.9 µM
O=C(COc1ccccc1)N1CCc2ccccc2C1 > 76.9 µM
COc1ccccc1N1CCN(Cc2ccco2)CC1 > 76.9 µM
CC1CCCN(S(=O)(=O)c2ccc(S(=O)(=O)N3CCCN(Cc4ccccc4)C3)cc2)C1 (centres undefined) > 76.9 µM
CCn1c(=O)cc(OCC(=O)NCCCN2CCN(c3cccc(Cl)c3)CC2)c2ccccc21 > 76.9 µM
Cc1cc(C)cc(N(CC(=O)NCc2cccnc2)S(C)(=O)=O)c1 > 76.9 µM
CN(C)c1oc(-c2ccc(OCc3ccc(Cl)cc3)cc2)nc1C#N > 76.9 µM
N#Cc1c(-c2ccco2)nc(NCC2CCCO2)[nH]c1=O (centres undefined) > 76.9 µM
CC(C)Sc1nnc(Nc2ccccc2)s1 > 76.9 µM
O=C(COC(=O)CCN1C(=O)c2ccccc2C1=O)Nc1ccc(S(=O)(=O)N2CCCC2)cc1 > 76.9 µM
CCOc1ccc(C(=O)OCn2nnc3ccccc3c2=O)cc1OC > 76.9 µM
CC1CCC(C(=O)NC(C(=O)NCCCN2CCOCC2)C(C)C)CC1 (centres undefined) > 76.9 µM
CN1CCN(C(c2cccc(C(F)(F)F)c2)c2nnnn2Cc2ccccc2)CC1 (centres undefined)
O=C(NCc1cccnc1)c1ccc2c(=O)n(CCCN3CCCC3=O)c(=S)[nH]c2c1 > 76.9 µM
COCC(=O)Nc1ccc(-c2cn3cccnc3n2)cc1 > 76.9 µM
O=C(NCCN1CCOCC1)c1nn2c(c1Cl)NC(c1ccccc1)CC2C(F)(F)F (centres undefined)
O=C1CC(C(=O)Nc2ccc(C(=O)N3CCOCC3)cc2)C2(CCCCC2)O1 (centres undefined) > 76.9 µM
COc1ccc(C(=O)N2CC=C(c3ccccc3)CC2)cc1S(=O)(=O)N1CCOCC1 > 76.9 µM
COC(=O)c1[nH]c2ccc(C)cc2c1NC(=O)CN1CCN(c2ccc(F)cc2)CC1 > 76.9 µM
COc1ccccc1-c1noc(CCC(=O)Nc2cccc(C(F)(F)F)c2)n1 > 76.9 µM
Cn1c(=O)c2c(nc(CN3CCc4ccccc4C3)n2CC(=O)c2ccccc2)n(C)c1=O > 76.9 µM
COc1ccc(CC(=O)Nc2ccc(-c3noc(-c4cc(OC)c(OC)c(OC)c4)n3)cc2)cc1 > 76.9 µM
Cc1ccc(-c2nc(CSCC(=O)NCc3cccnc3)c(C)o2)cc1 > 76.9 µM
NC(=O)CCCCC(=O)OCCCc1cccs1 > 76.9 µM
Cc1nnc(Nc2ccc(C(=O)N3CCOCC3)cc2)c2ccccc12 > 76.9 µM
Cc1occc1C(=O)NC(C)C(C)(C)C (centres undefined) > 76.9 µM
CCC(Sc1nc(C)cc(=O)[nH]1)C(=O)Nc1nnc(C)s1 (centres undefined) > 76.9 µM
CCn1c(=O)c(C(=O)CN2CCCc3ccccc32)c(N)n(Cc2ccccc2)c1=O > 76.9 µM
Cc1c(Cl)cccc1NC(=O)CCN1CCCC(C)C1 (centres undefined) > 76.9 µM
COc1ccc(Cl)cc1NC(=O)CN1CCC(n2nnc3cc(F)ccc32)CC1 > 76.9 µM
Cc1cc(N2CCN(c3nc(N4CCOCC4)nc4ccccc34)CC2)c2ccccc2n1 > 76.9 µM
Cc1cc2ccccc2c(=O)n1CC(=O)N1CCN(c2cccc(Cl)c2)CC1 > 76.9 µM
O=C(Nc1ccon1)c1ccc(S(=O)(=O)N2CCCCCC2)cc1 > 76.9 µM
COc1ccc(N2CC(C(=O)Nc3ccccc3C(=O)NCc3ccco3)CC2=O)cc1 (centres undefined) > 76.9 µM
O=C(NCC1CCCO1)c1cccc(N2C(=O)C3C4C=CC(C4)C3C2=O)c1 (centres undefined) > 76.9 µM
O=C(CSc1ncnc2c1oc1ccccc12)N1CCN(c2ccccc2)CC1 > 76.9 µM
Cc1ccc(C2NC(=O)NC(O)(C(F)(F)F)C2C(=O)c2cccs2)o1 (centres undefined) > 76.9 µM
Nc1cc(-c2nn[nH]n2)ccc1F > 76.9 µM
COc1cccc(-c2nnc(SCC(=O)Nc3cc(C)ccc3OC)n2N)c1 > 76.9 µM

From PubChem BioAssay AID360 (National Center for Advancing Translational Sciences (NCATS), 2006)
